# Screen size: about 48,000 compounds; about 550 (1.1%) were called active. About 4% were inconclusive and are not listed. Cut-off read from the data, not from the text of the source: active = potency below about 15 µM; inconclusive = mostly about 16 µM to 33 µM; inactive = weaker than that. The list shows a part of the results.
# Target: Lysosomal acid glucosylceramidase (Homo sapiens) (UniProt P04062)
# Assay: Glucocerebrosidase;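 note: the screen sought inhibitors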
# Details: purified enzyme, resorufin glucoside fluorescence (screen aimed at inhibitors), 20 min
# Outline: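 Wild-type enzyme at 0.2 nM final in 50mM citric acid/KH2PO4, 10mM sodium taurocholate, 0.01% tween-20, pH 5.9, with resorufin beta-D-glucopyranoside at 30 uM final. Compounds titrated, 20 min at RT, red fluorescence read; AC50 from titration.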
# Potency is the fitted concentration of half-maximal effect.
# Chain of UniProt P04062 (P04062 whole entry, looked up): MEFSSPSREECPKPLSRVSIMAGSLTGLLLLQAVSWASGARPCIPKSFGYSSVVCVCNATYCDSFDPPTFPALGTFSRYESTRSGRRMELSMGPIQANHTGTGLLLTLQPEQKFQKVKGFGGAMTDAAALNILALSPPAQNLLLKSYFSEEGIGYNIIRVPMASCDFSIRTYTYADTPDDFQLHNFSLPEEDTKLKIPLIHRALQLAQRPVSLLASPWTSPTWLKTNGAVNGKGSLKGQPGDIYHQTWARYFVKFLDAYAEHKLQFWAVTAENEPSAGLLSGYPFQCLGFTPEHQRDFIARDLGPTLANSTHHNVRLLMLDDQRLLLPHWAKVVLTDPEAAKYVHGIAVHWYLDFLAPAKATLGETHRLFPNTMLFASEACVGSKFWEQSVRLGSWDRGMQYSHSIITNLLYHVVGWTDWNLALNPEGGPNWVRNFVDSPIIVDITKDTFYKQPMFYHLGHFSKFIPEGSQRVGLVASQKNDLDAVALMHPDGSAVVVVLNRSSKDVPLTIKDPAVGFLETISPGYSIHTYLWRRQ
row,Structure (SMILES),Potency
1,Cc1ccc(-c2n[nH]c(=O)c3ccccc23)cc1N,inactive: > 76.9 µM
2,CCn1c(SCc2cccnc2)nc2c1c(=O)n(C)c(=O)n2C,inactive: > 76.9 µM
3,O=C(O)C1Sc2[nH]c(=O)sc2C2c3cc(Cl)ccc3OC(=O)C12 (stereo unspecified),inactive: > 76.9 µM
4,O=C(c1cccc(Br)c1)N1CCN(C(=O)N2CCCCC2)CC1,inactive: > 76.9 µM
5,CS(=O)(=O)N(CC(=O)NCc1cccnc1)Cc1ccc(Cl)cc1,inactive: > 76.9 µM
6,O=C(Nc1c2c(nn1-c1ccc(F)cc1)CSC2)c1ccc(S(=O)(=O)N2CCOCC2)cc1,inactive: > 76.9 µM
7,CC(C)NC(=O)CN(CCc1ccccc1)S(C)(=O)=O,inactive: > 76.9 µM
8,CCOc1cc(N2CCOCC2)c(OCC)cc1NC(=O)Cn1[nH]c(=O)c2ccccc2c1=O,inactive: > 76.9 µM
9,CCn1c(SCC(=O)Nc2ccc3c(c2)OCCO3)nc2c(c1=O)SC(C)C2 (stereo unspecified),inactive: > 76.9 µM
10,O=C(c1cccs1)N1CCN(CCc2ccccc2)CC1,inactive: > 76.9 µM
11,O=S(=O)(NC1CCCCCCC1)c1cccs1,inactive: > 76.9 µM
12,CCc1ccccc1N(CC(=O)O)S(C)(=O)=O,inactive: > 76.9 µM
13,COc1ccc(N2CCN(S(=O)(=O)c3cccc(C(F)(F)F)c3)CC2)cc1,inactive: > 76.9 µM
14,COC(=O)c1sc(N)c(C(=O)OC)c1CSc1nc2sc3c(c2c(=O)n1C)CCC3,inactive: > 76.9 µM
15,Cc1ccccc1CSc1nnc(-c2ccccn2)n1N,inactive: > 76.9 µM
16,N#Cc1ccc(OCCN2C(=O)NC3(CCSC3)C2=O)cc1 (stereo unspecified),inactive: > 76.9 µM
17,Cn1c(=O)n(C)c2cc(C(N)=O)ccc21,inactive: > 76.9 µM
18,CCOc1cccc(NC(=O)CC#N)c1,inactive: > 76.9 µM
19,CCOc1cc(C(=O)N2CCN(c3ccc(C(C)=O)cc3)CC2)cc(OCC)c1OCC,inactive: > 76.9 µM
20,Cc1ccc(C(=O)Cn2c(C)cc(C)c(C#N)c2=O)cc1,inactive: > 76.9 µM
21,CCCCN(C(=O)NC(=O)Nc1cccc(C)c1C)S(C)(=O)=O,inactive: > 76.9 µM
22,CCOC(=O)C1CCCN(c2cc(=O)n(Cc3ccc(F)cc3)c(=O)[nH]2)C1 (stereo unspecified),inactive: > 76.9 µM
23,O=C1CC(/C=C/c2ccco2)=Nc2ccccc2N1,inactive: > 76.9 µM

row,Structure (SMILES),Potency
1,CCc1c(C)nc(N2CCOCC2)[nH]c1=O,inactive: > 76.9 µM
2,CC(C)Cn1c(N)c(C(=O)COC(=O)c2ccc3ccccc3n2)c(=O)n(C)c1=O,inactive: > 76.9 µM
3,COc1cc(C(=O)NCc2cn3ccsc3n2)cc(OC)c1OC,inactive: > 76.9 µM
4,COc1ccc2[nH]c(=O)c(CN(C(=O)c3ccco3)C3CCCCC3)cc2c1,inactive: > 76.9 µM
5,COC(=O)c1[nH]c2ccc(C)cc2c1NC(=O)CCN1CCN(C2CCCCC2)CC1,inactive: > 76.9 µM
6,CC1(C)Cc2nc3sc4c(=O)n(CC(=O)NCc5ccco5)cnc4c3cc2CO1,inactive: > 76.9 µM
7,COc1ccc(CNc2oc(Cc3cccc4ccccc34)nc2C#N)cc1,inactive: > 76.9 µM
8,Cc1onc(-c2ccccc2)c1C(=O)NCc1ccccn1,inactive: > 76.9 µM
9,O=C(Nc1ccc(N2CCOCC2)c(Cl)c1)c1ncn[nH]1,inactive: > 76.9 µM
10,O=C(CSc1nnnn1-c1ccc(Cl)cc1)N1CCc2ccccc2C1,inactive: > 76.9 µM
11,CN(C1CCCCC1)S(=O)(=O)c1ccc(S(=O)(=O)N2CCCC2)cc1,inactive: > 76.9 µM
12,CCC(C)(C(=O)NC1CCCC1)N(C(=O)CNC(C)=O)c1ccc(C)cc1 (stereo unspecified),inactive: > 76.9 µM
13,COC(=O)c1ccc(C(=O)OC)c(NS(C)(=O)=O)c1,inactive: > 76.9 µM
14,COc1ccc(NC(=O)C2CCCN(S(=O)(=O)c3cccnc3)C2)cc1 (stereo unspecified),inactive: > 76.9 µM
15,CCc1ccc2nc(NC3=NCN(CCN4CCOCC4)CN3)nc(C)c2c1,inactive: > 76.9 µM
16,O=C(C1CCC(CNS(=O)(=O)c2cccs2)CC1)N1CCCCC1 (stereo unspecified),inactive: > 76.9 µM
17,Cc1nc(NC2=NCN(Cc3ccco3)CN2)nc2ccccc12,inactive: > 76.9 µM
18,O=C(OCc1nnc(-c2ccccc2)o1)c1ccc2c(c1)OCCO2,inactive: > 76.9 µM
19,O=C(O)C1CSC(c2ccccc2)N1C(=O)c1ccco1 (stereo unspecified),inactive: > 76.9 µM
20,Cn1nnnc1SCc1cc(=O)[nH]c2ccccc12,inactive: > 76.9 µM
21,O=S(=O)(Nc1ncccc1O)c1ccc(Cl)cc1,inactive: > 76.9 µM
22,Cc1ccc(NC(=O)C(C)Sc2nnc(-c3cccnc3)o2)cc1 (stereo unspecified),inactive: > 76.9 µM
23,COc1ccccc1CNc1nc2nc(C)cc(=O)n2[nH]1,inactive: > 76.9 µM

row,Structure (SMILES),Potency
1,CCc1ccc2c(COC(=O)c3n[nH]c4ccccc34)cc(=O)oc2c1,inactive: > 76.9 µM
2,COc1cccc(-c2nn(C)c3sc(C(=O)Nc4ccc5c(c4)OCCO5)cc23)c1,inactive: > 76.9 µM
3,O=C(CCCn1c(=S)[nH]c2cc3c(cc2c1=O)OCO3)N1CCN(c2ccccc2)CC1,inactive
4,COC(=O)C1=C(C(=O)c2ccc(C)cc2)C(c2ccc(OC)c(OC)c2)n2nnnc2N1 (stereo unspecified),inactive
5,O=C1CN2C(=Nc3ccc(Cl)cc3C2c2ccccc2)CN1 (stereo unspecified),active: 1.26 µM
6,CCCCn1nnnc1SCC(=O)Nc1ccc2c(c1)OCO2,inactive: > 76.9 µM
7,Cn1cnnc1SCC(=O)Nc1sccc1C#N,inactive: > 76.9 µM
8,CCOC(=O)Cc1csc(SCC(=O)/C(C#N)=C(\C)N)n1,inactive: > 76.9 µM
9,O=C(Cc1cccs1)NCC1CCCO1 (stereo unspecified),inactive: > 76.9 µM
10,O=S(=O)(CCSc1ccccn1)c1nc2ccccc2s1,inactive: > 76.9 µM
11,O=C(CSc1nnc(-c2ccco2)o1)NCC(=O)c1ccccc1,inactive: > 76.9 µM
12,CC1CCCN(C(=O)C2CCN(CC3CC=CCC3)CC2)C1 (stereo unspecified),inactive: > 76.9 µM
13,CC1CCc2cc(F)ccc2N1C(=O)c1ccc2c(c1)OCO2 (stereo unspecified),inactive: > 76.9 µM
14,COc1ccc2nc(NC(=O)CCNS(=O)(=O)c3ccc4c(c3)oc(=O)n4C)sc2c1,inactive: > 76.9 µM
15,CCOC(=O)C1(O)CSc2nc3sc(C(=O)O)c(C)c3c(=O)n21 (stereo unspecified),inactive: > 76.9 µM
16,Cc1ccc(Nc2nc(N)nc(CN3CCN(c4ccccc4)CC3)n2)cc1Cl,active: 4.19 µM
17,O=C(CSc1nnc(-c2cccc(S(=O)(=O)N3CCCCC3)c2)o1)NCCC1=CCCCC1,inactive: > 76.9 µM
18,COc1ccccc1CC(=O)NCc1ccc2c(c1)OCO2,inactive: > 76.9 µM
19,Cc1c(C(=O)Nc2ccncc2)oc2c1C(=O)CC(C)(C)C2,inactive: > 76.9 µM
20,CCN(c1ccccc1)S(=O)(=O)c1ccc(Oc2ccc(-n3ccnc3)cc2)nc1,inactive
21,CC12CN3CC(C)(CN(C1)C3c1ccccc1Cl)C2O (stereo unspecified),inactive: > 76.9 µM
22,COC(=O)c1cc(NC(=O)CN(c2ccc3c(c2)OCO3)S(C)(=O)=O)ccc1Cl,inactive: > 76.9 µM
23,Cc1cc(NS(=O)(=O)c2ccc(NC(=O)COc3ccc(Cl)cc3)cc2)no1,inactive: > 76.9 µM

row,Structure (SMILES),Potency
1,CCn1nnnc1-c1ccc(OC)c(S(=O)(=O)Nc2ccc(C(=O)OC)cc2)c1,inactive: > 76.9 µM
2,Cc1[nH]nc2c1C(c1ccc(-c3ccccc3C#N)o1)C(C#N)=C(N)O2 (stereo unspecified),inactive: > 76.9 µM
3,CCOc1ccc(C(=O)Nc2c3c(nn2-c2cccc(Cl)c2)CS(=O)C3)cc1 (stereo unspecified),inactive: > 76.9 µM
4,N#Cc1nc(-c2cccs2)oc1N1CCN(c2ccccc2)CC1,active: 8.29 µM
5,COc1ccc(-n2nc(C(=O)N3CCN(c4ccc(F)cc4)CC3)c3ccccc3c2=O)c(OC)c1,inactive: > 76.9 µM
6,CS(=O)(=O)N1CCCC(C(=O)NCCCN2CCOCC2)C1 (stereo unspecified),inactive: > 76.9 µM
7,COC(=O)CCC(NC(=O)c1cc(-c2ccc3c(c2)OCCO3)oc1C)C(=O)OC (stereo unspecified),inactive: > 76.9 µM
8,CCCn1c(SCc2ccccn2)nc2c1c(=O)n(C)c(=O)n2C,inactive: > 76.9 µM
9,COc1ccc(C(=O)N2CCN(C(=O)Cc3ccccc3)CC2)cc1OC,inactive: > 76.9 µM
10,O=C(NCc1ccc2c(c1)OCO2)c1cc(-n2cnnc2)ccc1Cl,inactive: > 76.9 µM
11,Cc1ccc(C)c(OCC(O)CN2C(C)CCCC2C)c1 (stereo unspecified),inactive: > 76.9 µM
12,O=C(CSc1nnnn1Cc1ccccc1)NCC(=O)c1ccccc1,inactive: > 76.9 µM
13,COc1ccccc1CNC(=O)COC(=O)C1=COCCO1,inactive: > 76.9 µM
14,CC(NC(=O)C1C2C=CC(C2)C1C(=O)O)c1ccccc1 (stereo unspecified),inactive: > 76.9 µM
15,COc1ccc(OC)c(S(=O)(=O)N2CCC(C(=O)Nc3cccc(C)c3C)CC2)c1,inactive: > 76.9 µM
16,COc1ccc2cc3cc(C(=O)N4CCN(Cc5ccc6c(c5)OCO6)CC4)oc3nc2c1,inactive: > 76.9 µM
17,CCOC(=O)c1ccc(NS(=O)(=O)c2ccc(SC)cc2)cc1,inactive
18,COC(=O)c1ccccc1NC(=O)c1c(O)c2cccc3c2n(c1=O)CCC3,inactive: > 76.9 µM
19,CCOC(=O)c1c(NC(=O)c2csc(C)c2)sc(C(C)=O)c1C,inactive: > 76.9 µM
20,COC(=O)c1cc(Cl)c(NS(=O)(=O)c2ccccc2)cc1OC,inactive: > 76.9 µM
21,CCC(CC)NCc1ccc(OC)cc1OC,inactive: > 76.9 µM
22,Cn1c(CCNC(=O)c2cccs2)nnc1SCC(=O)N1CCN(c2ccccc2)CC1,inactive: > 76.9 µM

# Source: PubChem BioAssay AID360 (National Center for Advancing Translational Sciences (NCATS), 2006)
